In PubChem BioAssay AID1508624 (National Center for Advancing Translational Sciences (NCATS), 2021):
Hit rate of the full screen: of about 48,000 compounds, about 120 (0.25%) were called active. Roughly 4% stayed inconclusive and do not appear here. Calls come from the whole dose curve; as a rule, active = well fitted activation curve with a large enough effect; inconclusive = small, poorly fitted or top-dose-only effect, or another doubt; inactive = no such curve, though single readings can be large or run the other way. The list shows a part of the results.

Assay: Primary qHTS for Identification of Small Molecule Activators of Huntingtin-Antisense Promoter Activity; note: nearly all actives have a fitted effect of over 55% in size
Details: HEK293 HTT-AS promoter firefly luciferase reporter, 24 h; series mostly up to 57.5 µM; activity change, positive = activation: at the top concentration
Procedure, shortened: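 Quantitative HTS used concentration series of up to 57.5 uM final on HEK293 luciferase reporter cells, 24 h at 37 degrees C. Readout was Dual-Glo firefly luminescence.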

Activity change, positive = activation, inactive:
COc1ccc(C(=O)N2CC(=O)Nc3ccc(C)cc3C2c2ccc(F)cc2)c(OC)c1 (stereo unspecified) -12.2%, CN(CC(=O)NCc1ccccc1Cl)S(=O)(=O)c1ccc2c(c1)c(=O)n(C)c(=O)n2C -16.1%, Cc1ccc(Cl)cc1N1CCN(C(=O)Cc2c(C(=O)O)c(C)cn2C)CC1 -17.1%, Cc1sc2ncn(CC(=O)N3CCN(c4ccccc4F)CC3)c(=O)c2c1S(=O)(=O)N1CCN(c2ncccn2)CC1 -10.2%, O=c1c(-c2cc(-c3ccc(Cl)cc3)nc3c2COc2ccccc2-3)coc2ccccc12 0.961%, CCC(=O)N1CCc2cc(Br)cc(S(=O)(=O)CCC(=O)NCCc3ccc(C)cc3)c21 -10%, CCOc1ccc(C(=O)N2CCC(c3nc(-c4ccc(S(=O)(=O)N5CCCC5)cc4)no3)CC2)cc1 -24.4%, c1ccc(CSc2nnc(C3CCNCC3)o2)cc1 -1.48%, COC(=O)c1ccc(NC(=O)CCn2cccn2)cc1 14.4%, O=c1[nH]c2ccc(NCc3ccc(-c4ccccc4F)o3)cc2[nH]1 -60.1%, CCOc1ccc(Cc2nccc3cc(OCC)c(OCC)cc23)cc1OCC -52.8%, Cc1ccc(C(C)C)c(OCC(=O)Nc2cccc(-c3nc4ncccc4o3)c2)c1 -27.9%, CCOc1ccc(NC(=O)N(Cc2ccc(CC)cc2)Cc2cn[nH]c2-c2ccc(OC)cc2)cc1 -20.1%, CCOc1ccc(-c2cc3c(=O)n(Cc4nc(-c5ccc(OC)cc5OC)oc4C)ccn3n2)cc1Cl 24.9%, COc1cccc(Oc2nc3c(c(=O)n(Cc4ccccc4Cl)c(=O)n3C)n2C)c1 0.327%, CCOc1ccc(C(=O)c2cn(CC(=O)Nc3cc(OC)ccc3OC)c3cc(OC)c(OC)cc3c2=O)cc1 -19.3%, COc1ccc(-c2ccc(=O)n(CC(=O)NCCc3ccccc3)n2)cc1 -8.99%, O=C(O)c1cccnc1, CCc1ccc(OCCSc2nc(-c3cccc(C)c3)nc3cc(=O)[nH]n23)cc1 11.6%, COc1ccc(NC(=O)CCSc2nc(-c3ccco3)cc(C(F)(F)F)n2)cc1OC 4.63% [at 11.5 µM, percent change from vehicle, -100% = no light], O=C(CN1C(=O)C2(SCC(=O)N2c2ccc(F)cc2)c2ccccc21)NCCc1ccccc1 (stereo unspecified) -14.7%, COc1ccc(NCc2nnc3n2CCCCC3)c(OC)c1 -16.8%, Cc1cc(C)cc(Nc2cc(C(=O)NCc3ccccc3)c3ccccc3n2)c1 -16.8%, CCOc1cc(CNCCSc2nnnn2-c2ccccc2)ccc1OC -11.8%, CCOC(=O)C1CCN(C(c2ccc(F)cc2)c2sc3nc(-c4ccco4)nn3c2O)CC1 (stereo unspecified) -6.65%, Cc1cc(C)c(NC(=O)C(C)n2nnc3sc(-c4ccccc4)cc3c2=O)c(C)c1 (stereo unspecified) 7.43%, CNC(=O)C1CCC(Cn2c(=O)c3sccc3n(CC(=O)Nc3cc(F)ccc3F)c2=O)CC1 (stereo unspecified) -18%, CC(=O)Nc1cccc(NC(=O)CSc2cn(CC(=O)N3CCCCCC3)c3ccccc23)c1 -24.4%, CCOC(=O)c1cccc(NC(=O)N2CCC(CN3CCCCCC3)CC2)c1 -1.9%, O=C(Nc1ccc2oc(-c3cccc(Cl)c3Cl)nc2c1)c1cccc(Br)c1 -38.9%, O=C(c1cn(CCOc2ccc(Cl)cc2)c2ccccc12)C1CCCCC1 -27.9%, COc1cn(CC(=O)Nc2cc(C)ccc2C)c(CN2CCCCC2)cc1=O -15.5%, O=[N+]([O-])c1cc(-c2nc(-c3ccncc3)no2)ccc1NCc1ccccc1 5.65%, COc1ccccc1NC(=O)C1=C(C)Nc2nc(SCc3ccccc3Cl)nn2C1c1ccncc1 (stereo unspecified) -14.5%, CC(=O)c1c(C)oc2ccc(N(C(=O)c3ccncc3)S(=O)(=O)c3ccc(C)cc3C)cc12 -44.7%, CCN(CC)S(=O)(=O)c1ccc(C(=O)NCCSc2c(-c3ccc(OC)cc3)[nH]c3ccccc23)cc1 -30.3%, COc1cccc(NC(=O)c2ccc(-c3nc(COc4ccc(C)cc4)c(C)o3)cc2)c1 -17.8%, Cc1ccc2c(c1)c1c(c(=O)n(-c3ccccc3C)c(=O)n1CC(=O)NCC1CCCO1)n2C (stereo unspecified) -11%, Cc1cc(=O)n2nc(N3CCC(C(=O)Nc4ccc(Br)cc4F)CC3)sc2n1 -14.4%, Cc1ccc(C)c(NC(=O)CCCN2C(=O)C(c3ccccc3)Oc3cccnc32)c1 (stereo unspecified) -26.9%, CC(C)(C)c1nnc(NS(=O)(=O)c2ccccc2)s1 -6.44%, OC[C@H]1OC(O)C[C@@H](O)[C@H]1O (stereo partly specified) -0.868%, O=C(CNC(=O)c1ccc(Cl)cc1)OCc1cc(=O)n2nc(C3CCCCC3)sc2n1 -12%, CCOC(=O)c1cccc(NC(=O)c2cc3cc4ccc(C)cc4nc3s2)c1 5.33%, CSc1ccc(CCNC(=O)c2cc3c(-c4ccccc4F)nn(C)c3s2)cc1 -19.9%, Nc1c(C(=O)NCc2ccccc2)nnn1Cc1cccc(Br)c1 -42.9%, Cc1cccc(NC(=O)Cn2c(=O)n(CCC(=O)N3CCc4ccccc4C3)c(=O)c3ccccc32)c1 -17.5%, CCCCc1oc2ccccc2c1C(=O)c1cc(I)c(OCCN(CC)CC)c(I)c1, CCOC(=O)c1cc(-c2ccc(F)cc2)n(CCC(=O)NC2CCCCC2)c1C -29.5%, Cc1cc(C)cc(Nc2nc3c(S(=O)(=O)c4cccc(Cl)c4)nnn3c3ccsc23)c1 -5.2%, CC(=O)Nc1ccc(C(=O)CSc2nnc3ccc4ccccc4n23)cc1 -2.26%, CCOC(=O)c1cc2c(=O)n3ccccc3nc2n(C)c1=NC(=O)c1cc2ccccc2o1 -2.12%, CCOc1ccc(NC(=O)NCCN2CCN(c3ccccc3F)CC2)cc1 -8.98%, O=S(=O)(NCc1ccc(Cl)cc1)c1ccc(N2CCCCS2(=O)=O)cc1 -37.7%, CCCCN(CCN(CCCC)C(=O)N1CCOCC1)C(=O)N1CCOCC1 -6.19%, CN1CCN(c2ccc3nc(-c4c(N)c5c(F)cccc5[nH]c4=O)[nH]c3c2)CC1 24.9%, COc1cccc2sc(N3CCN(C(=O)CCS(=O)(=O)c4ccc(F)cc4)CC3)nc12 -37.9%, Cc1ccc(CNC(=O)C(=O)NCC(c2cccnc2)N2CCN(c3ccccc3F)CC2)cc1 (stereo unspecified) -48.2%, Cc1ccsc1CN(C(=O)c1oc2ccccc2c1C)C1CCS(=O)(=O)C1 (stereo unspecified) -31.3%, Cc1oc2ncn(C)c(=O)c2c1C(=O)NCCCN(Cc1ccccc1)C(C)C -4.27%, CCn1c(=O)c2sccc2n2c(CCC(=O)Nc3ccc(OC)c(Cl)c3)nnc12 -9.21%, CCc1ccc(C2NC(=O)c3[nH]nc(-c4cccc(OC)c4)c32)cc1 (stereo unspecified) -24.4%, CC(C)Oc1ccc(CNC(=O)C2CCN(c3nc4ccccc4n(C)c3=O)CC2)cc1 -8.95%, COc1ccccc1CC(=O)Nc1ccc2nc(N3CCC(C)CC3)cc(C)c2c1 -6.94%, Cc1ccc(C)c(Cn2c3ccccc3c3cnn(CC(=O)NC(C)c4ccccc4)c(=O)c32)c1 (stereo unspecified) -5.16%, COc1ccc(S(=O)(=O)N(CC(=O)Nc2cccnc2)c2ccc(C)cc2)cc1OC 0.545%, COc1cc2c(=O)n(CCC(=O)NCC3CCCO3)c(=O)n(CC(=O)Nc3ccc(F)cc3)c2cc1OC (stereo unspecified) -9.14%, Cc1ccc(O)c(NC(=O)CCS(=O)(=O)c2nc(-c3ccc4c(c3)OCO4)cc(C(F)(F)F)n2)c1 17.1%, C=C1C(=O)O[C@H]2[C@@H]1CCC(C)=CCC[C@@]1(C)O[C@@H]21 -61%, O=c1[nH]c(=O)n([C@H]2C[C@H](O)[C@@H](CO)O2)cc1I 5.65%, CCc1ccc(CNC(=O)CCn2c(=O)c3cccn3c3ccc(F)cc32)cc1 -17.1%, CCOc1ccccc1CNC(=O)c1cc(-c2ccc(C)c(C)c2)nc2ccccc12 23%, CCOc1ccccc1NC(=O)COc1ccc(S(=O)(=O)NC2CCCCC2)cc1 -32.3%, CCn1c(CN2CCCCC2)nc2cc(NC(=O)c3ccc([N+](=O)[O-])cc3)ccc21 -28.4%, O=C(Nc1ccc(F)c(F)c1)C1CCCN1S(=O)(=O)c1cccc2nsnc12 (stereo unspecified) -15.9%, CCc1ccc(NC(=O)CSc2nc3ncccc3[nH]2)cc1 0.932%, O=S(=O)(c1ccccc1)c1nc(-c2ccc(F)cc2)oc1N1CCCCCC1 -23.4%, Cc1cccc(N(C)C(=S)Oc2ccc3ccccc3c2)c1, CCOc1ccc(/C=C/C(=O)Nc2sc3c(c2C(=O)OC)CCC3)cc1 -18.4%, CCOC(=O)c1ccc(-c2ccc(/C=C(\C#N)C(=O)Nc3ccc(C)cc3OC)o2)cc1 -0.0736%, CCCNC(=O)CN1CCN(c2ncc(NC(=O)c3ccc(Cl)cc3)cc2C(=O)O)CC1 17.1%, N[C@@H](COP(=O)(O)O)C(=O)O -8.77% [at 25.1 µM, percent change from vehicle, -100% = no light], CCCCN1C(=O)C(O)(c2c(C)[nH]c3ccccc23)c2ccccc21 (stereo unspecified) -24.6%, CCCOc1ccccc1C1Oc2nc(SC)nnc2-c2ccccc2N1C(C)=O (stereo unspecified) -26%, COCCNC(=O)Cn1ncc2c(C)n(Cc3ccc(C)cc3)c(C)c2c1=O -14.7%, Cc1ccc(C)c(CNC(=O)c2cnc3sc(N4CCCC4)nn3c2=O)c1 -15.1%, CCOc1ccc(C(=O)c2cn(Cc3ccc(F)cc3)c3ccc(F)cc3c2=O)cc1 -29.3%, Cc1ccc(CN(Cc2ccco2)C(=O)c2oc3ccc(C)cc3c2C)cc1 -23.2%, Cc1cccc(-n2ncc3c(N4CCCCCC4)ncnc32)c1 -55.2%, CC(C)(C)C(=O)OC1=CN(Cc2ccccc2)S(=O)(=O)c2ccccc21 -8.99%, CSc1ccc(C2c3c(oc4ccccc4c3=O)C(=O)N2CCCN2CCOCC2)cc1 (stereo unspecified) 10.5%, Oc1ccc(NCc2ccc(OCc3ccccc3Cl)cc2)cc1 -2.54%, O=C(CSc1nc(=O)n(Cc2cccnc2)c2c1CCC2)Nc1ccc(F)cc1F -14.5%, N#C/C(=C\c1c(Oc2ccc(Br)cc2)nc2ccccn2c1=O)c1nc2ccccc2s1 6.11%, COC(=O)c1cccc(NC(=O)Nc2cc(C(=O)NCc3cccc(F)c3)ccc2N2CCCC2)c1 -5.71%, CC(=O)N1CCc2cc(Br)cc(S(=O)(=O)N3CCN(c4cccc(C)c4)C(C)C3)c21 (stereo unspecified) -10.1%
